Source: PubChem BioAssay AID2546 (National Center for Advancing Translational Sciences (NCATS), 2010)
The campaign covered roughly 310,000 compounds. About 11,000 (3.5%) were called active. The inconclusive results got no clear call from the source; some entries with a clear call stand among them for comparison. Calls follow the shape of the dose curve; as a rule, active = well fitted inhibition curve with a large enough effect; inconclusive = small, poorly fitted or top-dose-only effect, or effect the other way; inactive = flat fitted curve, though single readings scatter. No potency is given beside an inconclusive call; the fits are too rough.

test: VP16 counterscreen qHTS for inhibitors of ROR gamma transcriptional activity; conditions: Drosophila S2 Gal4-VP16 UAS-luciferase, luminescence, 20 h; series mostly up to 53.6 µM;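 also: Gal4-VP16 expression switched on by copper sulfate through the metallothionein promoter; nearly all actives have a fitted effect of over 50% in size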
Potency is read from the fitted curve at half-maximal effect; tags tell the direction and shape of the fitted curve.

SMILES | Potency
COc1ccc(S(=O)(=O)Nc2cccc(N(C)S(C)(=O)=O)c2)cc1Br | inconclusive [inhibitor, single point]
O=C1CC(c2cccc(Br)c2)c2cc3c(cc2N1)CCC3 (configuration not stated) | inconclusive [inhibitor, partial curve, poor fit]
CC(C)(C)c1ccc(OCc2ccc(C(=O)N/N=C/c3ccc([N+](=O)[O-])cc3)o2)cc1 | active: 10 µM
CCCOC(=O)c1ccc(Oc2cn[nH]c2-c2ccc(OC)cc2O)cc1 | active: 22.4 µM
O=C(Nc1ccc(OCc2ccccc2)cc1)c1cccc([N+](=O)[O-])c1 | inconclusive [inhibitor, full curve, poor fit]
CCCCC1(Cc2cccc([N+](=O)[O-])c2)C(=O)N(c2ccccc2)N(c2ccccc2)C1=O | inconclusive [inhibitor, single point]
O=C(CNC(=O)c1ccc(Br)o1)OCC(=O)c1cccc([N+](=O)[O-])c1 | inconclusive [inhibitor, single point]
CC(=O)Nc1cccc(/C(C)=N/NC(=S)NC(C)C)c1 | inconclusive [inhibitor, single point]
COc1ccc(-n2c(=S)[nH]c3cc(C(=O)Nc4ccccc4OC)ccc3c2=O)c(OC)c1 | active: 4.47 µM
O=S(=O)(Nc1cc(Sc2cccc3cccnc23)c(O)c2ccccc12)c1ccc(F)cc1 | active: 2.51 µM
O=C(NCC1CCCO1)c1ccc(OC2CCN(C(=O)C3CC3)CC2)cc1 (configuration not stated) | inconclusive [inhibitor, single point]
CN(C(=S)Oc1ccc(C(=O)Nc2ccccc2)cc1)c1ccccc1 | inconclusive [activator, single point]
CCCCCn1c(=O)c2ccccc2n2c(=S)[nH]nc12 | inconclusive [inhibitor, single point]
CC1CCCN(C(=O)CCc2nnc(-c3ccc4c(c3)OCO4)o2)C1 (configuration not stated) | inconclusive [activator, partial curve]
O=C(c1cc(COc2ccc(F)cc2Cl)on1)N1CC2C[C@@H]3CC1C[C@H](C2)C3 | inconclusive [inhibitor, single point]
CSCSC1=C(C#N)C(c2ccc(Cl)cc2)C(C(C)=O)=C(C)N1 (configuration not stated) | inconclusive [inhibitor, single point]
Cc1ccc(NC(=O)CCN2CCN(C/C=C/c3ccccc3)CC2)cc1C | inactive
O=C(CCc1nc(-c2ccccc2F)no1)NC1CCN(Cc2ccccc2)CC1 | inconclusive [inhibitor, single point]
CCn1c(COc2ccccc2)nnc1SCC(=O)CC(=O)Nc1ccccc1OC | active: 22.4 µM
COc1ccc2[nH]c3c(c2c1)CCn1c-3nc2sc(C(=O)Nc3ccccc3)c(C)c2c1=O | inconclusive [inhibitor, partial curve, poor fit]
Cc1ccc(NC(=O)CSc2nc3ccccc3c3nc(CCc4c(C)n[nH]c4C)nn23)cc1F | inconclusive [inhibitor, single point]
COC(=O)N1C(=O)[C@@](c2ccc(OC)cc2)(C(C)C)N1C(=O)OC | inactive
Cc1onc(-c2ccccc2Cl)c1C(=O)NC(=S)Nc1ccc(C(C)(C)C)cc1 | active: 12.6 µM
CCN1CCN(CCCN(Cc2ccco2)C(=S)Nc2ccc(Cl)c(C)c2)CC1 | inactive

SMILES | Potency
COc1ccccc1C(=O)N/N=C(\C)CC(=O)Nc1ccccn1 | inactive
Cc1nc2ccccc2n1CC(=O)c1ccccc1 | inactive
CCCCn1c(Nc2ccc(OC)cc2)nc2ccccc21 | inconclusive [inhibitor, partial curve, poor fit]
COC(=O)C(CC(=O)c1ccc(Cl)cc1)c1ccc(C(C)C)cc1 (configuration not stated) | inactive
O=C(NC1CCC(O)CC1)c1ccc(-c2ccc([N+](=O)[O-])cc2)o1 (configuration not stated) | inconclusive [activator, partial curve]
C=CCNC(=S)N/N=C/c1ccc(-c2ccc(OC)cc2)o1 | active: 1.78 µM
CCc1ccc(-c2csc(NC(=O)C3=NN(c4ccccc4)C(=O)CC3)n2)cc1 | inconclusive [activator, single point]
CC(C)(C)OC(=O)N1CCC(c2c(C(=O)N3CCN(C(=O)c4ccco4)CC3)cnn2-c2ccc(F)cc2F)CC1 | inactive
CC(C)(C)c1ccc(OCC(=O)NCCN2CCCC2)cc1 | inconclusive [inhibitor, single point]
CCCC1CCC(=NNC(=S)NCCc2ccccc2)CC1 (configuration not stated) | active: 11.2 µM
COc1cccc(/C=C2\SC(=S)N(c3cccnc3)C2=O)c1OC | inconclusive [activator, partial curve]
COc1ccc(N2CCC(CNC(=S)Nc3c(C)cccc3C)C2)cc1 (configuration not stated) | active: 2.24 µM
CCOC(=O)N1CCC(N2CCCC(CO)(Cc3cccc(OC)c3)C2)CC1 (configuration not stated) | inactive
CC(C)(C)c1ccc(C2CC2C(=O)N/N=C\c2cc3ccccc3nc2Cl)cc1 (configuration not stated) | inactive
N#Cc1c(/N=C/c2cccs2)sc2c1CCCCC2 | inconclusive [inhibitor, single point]
N#CCC(=O)Nc1ccc(C(=O)OCc2ccccc2Oc2ccccc2)cc1 | inactive
COc1n[nH]c(C(=O)Nc2cc(Cl)ccc2Cl)c1[N+](=O)[O-] | inconclusive [inhibitor, single point]
Cc1cc(C(=O)COC(=O)c2ccco2)c(C)n1Cc1ccco1 | inactive
COc1ccc(C(=O)NC2CCCc3c2cnn3-c2cccc(C)c2C)o1 (configuration not stated) | inconclusive [inhibitor, single point]
S=C(NCc1ccco1)Nc1ccc(Oc2ccc(Cl)cc2)cc1 | active: 11.2 µM
COc1ccc(C(=O)/C=C/C(=O)N(CC(=O)NC2CCCCC2)Cc2ccc(F)cc2)c(O)c1 | active: 7.08 µM
CCN1CCN(C(=S)NC(=O)c2cccs2)CC1 | inconclusive [inhibitor, single point]
COc1ccc(S(=O)(=O)N2CCCCCC2)cc1C(=O)N1CCCCC1 | inconclusive [inhibitor, full curve]
CCCC[C@@H]1CNC(=S)N1CCCC | active: 7.94 µM

SMILES | Potency
CCNC(=S)Nc1ccc(N(c2ccccc2)C(C)C)cc1 | inactive
CC(C)CNC(=S)NC(=O)c1ccc(Cl)cc1Cl | active: 5.62 µM
CC1OC(OC2C(OC3C(O[C@H]4CC[C@]5(C)C6C=C[C@]78OC[C@@]9(CC[C@@H](C)[C@H](C)C97)[C@H](O)C[C@@]8(C)[C@]6(C)CC[C@H]5C4(C)C)OC(C)C(O)C3O)OC(CO)C(O)C2O)C(O)C(O)C1O (some centres not stated) | inconclusive [inhibitor, single point]
CC1CN(S(=O)(=O)c2cccc(-c3csc(-c4ccccc4)n3)c2)CC(C)O1 (configuration not stated) | inactive
COCCNC(=O)C(C#N)c1nc2ccccc2nc1N1CCCCCC1 (configuration not stated) | inactive
O=C(Cn1ccc(C(F)(F)F)n1)N/N=C/c1cccs1 | inconclusive [inhibitor, single point]
COc1ccc(N2C(=O)CC(Sc3nc4ccccc4s3)C2=O)cc1OC (configuration not stated) | active: 5.62 µM
Cc1cc(C(=O)COc2ccc(-c3nnco3)cc2)c(C)n1Cc1ccccc1 | inconclusive [inhibitor, single point]
Cc1c(Cl)c([N+](=O)[O-])nn1Cc1ccc(C(=O)N/N=C\c2cc(Cl)ccc2O)o1 | active: 11.2 µM
O=C(/C=C/c1ccc(-c2ccccc2)o1)c1ccccc1 | inconclusive [inhibitor, single point]
O=C(N/N=C/C(Cl)=C/c1ccc([N+](=O)[O-])cc1)C(=O)Nc1ccccc1C(=O)O | inconclusive [activator, single point]
COc1ccc(-c2nnc(NC(=O)C3CC3)o2)cc1 | active: 10 µM
COc1ccc(-n2c(C)nc3c(cnn3-c3ccc(Cl)cc3)c2=O)cc1 | inconclusive [inhibitor, single point]
Cc1cc(C)c2c(=O)[nH]c(SCc3ccc([N+](=O)[O-])cc3)nc2n1 | inactive
CCc1ccc(/C=N/n2c(C3CCCCC3)n[nH]c2=S)cc1 | active: 8.91 µM
CCC1(C)Cc2ccccc2-c2[nH]c(=S)[nH]c(=O)c21 (configuration not stated) | inconclusive [inhibitor, single point]
Cc1cccc(C)c1NC(=O)COc1ccc2c(C)c(Cc3ccccc3)c(=O)oc2c1C | inconclusive [activator, single point]
CCOc1ccc(N(CC(=O)NCc2ccc(OC)cc2)S(C)(=O)=O)cc1 | inactive
O=C(NCc1cccs1)c1csc2ccccc12 | inconclusive [activator, single point]
COc1ccc(NS(=O)(=O)c2ccc(NS(=O)(=O)c3cccs3)cc2)cc1 | inactive
Cc1cc(C)c(S(=O)(=O)NCCn2ccc3ccccc32)c(C)c1 | inconclusive [inhibitor, single point]
O=S(=O)(Nc1cccc(-n2cnnn2)c1)c1cnc(Cl)c(Cl)c1 | inactive
COc1ccc(-c2cnn3c(N)c(S(=O)(=O)C(C)(C)C)cnc23)cc1 | inconclusive [inhibitor, single point]
CCc1ccccc1NC(=O)CSc1nc2n[nH]c(C)c2c(=N)n1-c1ccc(OC)cc1 | inconclusive [activator, partial curve]
